This is one part of the list.
B1: chr16:58599380:58599482:-|5pUTR|ENSG00000125107|unk|FALSE|unique (ssRNA)
RNA: GGGAGUUCUACAGUCCGACGAUCCAGAACAGAGUAAGACCCCUGGUAAAGAAGAACUGAAGAUAUUAUACAGAUACCAGAUAUAGCCUAAUUACAAAGAAAGCAUUAACCUGCCUCUGAGGUGACUAAAGGGGAAUAAUGGUGCAACAGAGGAUUGAGCAUCA
B2: chr1:113685846:113685948:+|3pUTR|ENSG00000081026|unk|FALSE|unique (ssRNA)
RNA: GGGAGUUCUACAGUCCGACGAUCUAUAUACACUUGAGGUUCUGAUUAGAGAAAGAUCUGUAAAUUGCUCAUUAUUUUUUAUAUAGAUAUUUAAAAAAAACAGUUUAUGGCCUGCAUUUCUUUUACUGUCACAUUGGUUUAAUGCAACAGAGGAUUGAGCAUCA
B3: chr21:44497892:44499936:-|three_prime_utr|ENSG00000175894|control|control|control (ssRNA)
RNA: GGGAGUUCUACAGUCCGACGAUCGUGGGGCGGGACCCCAGCACCUCCCCCAACUGACCCUGGACGUCCAGGUGGGCCCAGCCUAGGGCAUCCCGGGCCUGGGCAUCAGGCAGGGUGCAGGUGGGGCCAUCUGCGGCCCUGGUUCAACAGAGGAUUGAGCAUCA
B4: ENSG00000198589:be:win_7101|CDS|ENSG00000198589|bound_else_gene|NA|bound_elsewhere_windowed (ssRNA)
RNA: GGGAGUUCUACAGUCCGACGAUCUCUUGGAGUGAUGGAUGAUGGGACAGUAGUGUCUGAUGUCGAACUUCCUCCUUGGGCCAAAACCUCAGAAGAAUUUGUUCACAUAAACAGAUUGGCCCUGGAGAGUGAAUUUGUUUCCUGCAACAGAGGAUUGAGCAUCA
B5: chr9:37441208:37441377:-|CDS|ENSG00000168795|unk|FALSE|unique (ssRNA)
RNA: GGGAGUUCUACAGUCCGACGAUCAGGGUAGGUGAUAUCCAUAUUUUGGAAGUCACAAAUAACCUAGAGCAUAAGUCCACUUUUAGUAUUUCGAAUUUUCUUAACAAGAGCAGAGGAAAUAACUUUACUGCAAAUCAGAACAAUCAACAGAGGAUUGAGCAUCA
B6: chr9:122240152:122240253:-|3pUTR|ENSG00000119446|msi1|FALSE|unique (ssRNA)
RNA: GGGAGUUCUACAGUCCGACGAUCCUUCUUGGAGUAUAGAAUUCACCAUUUUAUCCGUAAGUCUUCAAAGGAUUAUGGUGGACUAGAACUUACAUAGUGCAAAAUAGUCUUCUAUUUUUAAUAGGAACUUAGAAAAAACUUAGACAACAGAGGAUUGAGCAUCA
B7: chr3:45823315:45826332:-|three_prime_utr|ENSG00000163818|control|control|control (ssRNA)
RNA: GGGAGUUCUACAGUCCGACGAUCUCAGGCAUGUAUUUUGAAAAGCAUUUUGUCAUAUCCCCUCUCCUUAUUUUUCUAAUAUUUAGACUUUGAAUAUUUAGAACUAGAGUUCCUAUUUUCAGCUAGUUGAAAACAGAGAAAACCCAACAGAGGAUUGAGCAUCA
B8: chr5:10236899:10237040:-|CDS|ENSG00000150756|control|control|control (ssRNA)
RNA: GGGAGUUCUACAGUCCGACGAUCUAUUAUUACUUGUUCACAAAACCAUCCUCCCAGACACUUUCAUUUCACUGCUGCUGUGCUAGCCCACUGAUGGAGAGAUGCAGUGGAUUUUCAGCAAUGUUUUGUUCGACCUCCCCGGGGCAACAGAGGAUUGAGCAUCA
B9: chrX:51895182:51895295:+|CDS|ENSG00000179222|unk|total|mutant (ssRNA)
RNA: GGGAGUUCUACAGUCCGACGAUCAGUUCACAGCCCCCAACUGCCAAUGAGAUGGCUGACAUUCAGGUUUCAGCAGCUGCCGCCCGGCCUAAGUCAGCCUUUAAAGUCCAGAAUGCCACCACAAAAGGCCCAAAUGGUGUCUAUCAACAGAGGAUUGAGCAUCA
B10: ENSG00000198589:be:win_5151|CDS|ENSG00000198589|bound_else_gene|NA|bound_elsewhere_windowed (ssRNA)
RNA: GGGAGUUCUACAGUCCGACGAUCGCAGUUCAGAUCUUUUGACAGAAGUGUCAUUGUUGCAGCAAAAAAGUCAGCAGUCUCACCUUCCACCUUUAAUACAAGCAUACCUACCAAUGCUGUCAGUGUGGUUUCCUCAGUAGAUUCCAACAGAGGAUUGAGCAUCA
B11: chr7:73831540:73831641:+|CDS|ENSG00000189143|msi1|FALSE|unique (ssRNA)
RNA: GGGAGUUCUACAGUCCGACGAUCCAAGGCCAAGACCAUGAUCGUGGCGGGCGUGGUGUUCCUGUUGGCCGGCCUUAUGGUGAUAGUGCCGGUGUCCUGGACGGCCCACAACAUCAUCCAAGACUUCUACAAUCCGCUGGUGGCCAACAGAGGAUUGAGCAUCA
B12: chrX:101412715:101412817:+|CDS|ENSG00000126945|unk|FALSE|unique (ssRNA)
RNA: GGGAGUUCUACAGUCCGACGAUCGGGUAUGGAGGCUAUGAUGACUAUGGUGGCUAUAAUGAUGGAUAUGGCUUUGGGUCUGAUAGAUUUGGAAGAGACCUCAAUUACUGUUUUUCAGGAAUGUCUGAUCAUAGAUACGGAGAUCAACAGAGGAUUGAGCAUCA
B13: chr19:18306235:18307555:-|three_prime_utr|ENSG00000130520|control|control|control (ssRNA)
RNA: GGGAGUUCUACAGUCCGACGAUCCAGAAAGGAAGAGGCAGGCGCCAGGGGGAACCCCCUUCGUGUUUUGUGACCCUCCCUUUUAGGUGAAGCCCCUUUUUCUUGCUAAAACCGGCAAUUCUCCGGUUAGAAAUGUUACUUGGUCAACAGAGGAUUGAGCAUCA
B14: chr5:157463210:157463311:+|CDS|ENSG00000172548|unk|total|mutant (ssRNA)
RNA: GGGAGUUCUACAGUCCGACGAUCCAGGAAAGAAUCAGGCAGAACUAUGGCUUCUACAUCGGCCUGGGCCUGGCAUUCCUGUCCCGCUUCCUCAUCGGCAGCAGCGUCAUCCUCAAGAAGAAAGGCCUCUUGCGACUCGUGGCCCAACAGAGGAUUGAGCAUCA

Target: T1, UNK ZnF1-6 (called full-length) (human, UniProt Q9C0B0 30-357)
T1 sequence: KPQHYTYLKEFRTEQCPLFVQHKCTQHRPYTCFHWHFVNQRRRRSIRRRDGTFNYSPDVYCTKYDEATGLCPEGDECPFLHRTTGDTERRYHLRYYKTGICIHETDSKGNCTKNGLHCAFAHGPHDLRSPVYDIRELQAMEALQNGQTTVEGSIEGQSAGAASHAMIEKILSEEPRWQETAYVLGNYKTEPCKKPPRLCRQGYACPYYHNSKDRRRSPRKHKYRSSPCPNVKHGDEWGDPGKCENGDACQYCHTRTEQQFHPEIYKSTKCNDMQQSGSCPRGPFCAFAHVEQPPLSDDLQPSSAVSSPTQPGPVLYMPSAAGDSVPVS
Test: nsRBNS (natural sequence RNA bind-n-seq); RBNS binding buffer (assumed for nsRBNS): 25 mM Tris pH 7.5, 150 mM KCl, 3 mM MgCl2, 0.01% Triton X-100, 500 ug/ml BSA, 20 U/ml SUPERase-In, 4 C; UNK is unkempt and MSI1 is Musashi-1; names of the RNAs are library labels; protein concentration not given here; high values mean tight binding

Binder | binding signal
B1 | 0.956 enrichment R
B2 | 2.28 enrichment R
B3 | 1.1 enrichment R
B4 | 0.56 enrichment R
B5 | 1.91 enrichment R
B6 | 41.4 enrichment R
B7 | 2.09 enrichment R
B8 | 0.684 enrichment R
B9 | 0.673 enrichment R
B10 | 0.468 enrichment R
B11 | 0.598 enrichment R
B12 | 0.897 enrichment R
B13 | 1.21 enrichment R
B14 | 0.855 enrichment R
